Measured values from the supplement of paper PMC8728848.
The list shows a part of the results.

Legend:
Assay in all cases: glycan array binding signal (z-score within array); higher = stronger binding
Details in all cases: glycan notation: IUPAC condensed, linker removed
[1] = biological target: Fuc(a1-2)[Gal(a1-4)]Gal(b1-4)GlcNAc
How it was run: (§1)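 Negative Z-scores can be read as non-binding. The Z-score is calculated within each array and then averaged across arrays of one protein sequence at different concentrations or buffers and across linkers. Arrays, 3228 in all, were curated from the Consortium for Functional Glycomics database and kept only where the protein sequence was available.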

[2] = biological target: Fuc(a1-2)[GalNAc(a1-3)]Gal
How it was run: as §1

[3] = biological target: Fuc(a1-2)[GalNAc(a1-3)]Gal(b1-3)GalNAc(a1-3)[Fuc(a1-2)]Gal(b1-4)GlcNAc
How it was run: as §1

[4] = biological target: Fuc(a1-2)[GalNAc(a1-3)]Gal(b1-3)GalNAc(b1-3)Gal(a1-4)Gal(b1-4)Glc
How it was run: as §1

[5] = biological target: Fuc(a1-2)[GalNAc(a1-3)]Gal(b1-3)GlcNAc
How it was run: as §1

[6] = biological target: Fuc(a1-2)[GalNAc(a1-3)]Gal(b1-3)GlcNAc(b1-2)Man(a1-3)[Fuc(a1-2)[GalNAc(a1-3)]Gal(b1-3)GlcNAc(b1-2)Man(a1-6)]Man(b1-4)GlcNAc(b1-4)GlcNAc
How it was run: as §1

[7] = biological target: Fuc(a1-2)[GalNAc(a1-3)]Gal(b1-3)GlcNAc(b1-2)Man(a1-3)[Fuc(a1-2)[GalNAc(a1-3)]Gal(b1-3)GlcNAc(b1-2)Man(a1-6)]Man(b1-4)GlcNAc(b1-4)[Fuc(a1-6)]GlcNAc
How it was run: as §1

[8] = biological target: Fuc(a1-2)[GalNAc(a1-3)]Gal(b1-3)GlcNAc(b1-3)GalNAc
How it was run: as §1

[9] = biological target: Fuc(a1-2)[GalNAc(a1-3)]Gal(b1-3)GlcNAc(b1-6)GalNAc
How it was run: as §1

[10] = biological target: Fuc(a1-2)[GalNAc(a1-3)]Gal(b1-4)Glc
How it was run: as §1

[11] = biological target: Fuc(a1-2)[GalNAc(a1-3)]Gal(b1-4)GlcNAc
How it was run: as §1

[12] = biological target: Fuc(a1-2)[GalNAc(a1-3)]Gal(b1-4)GlcNAc(b1-2)Man
How it was run: as §1

[13] = biological target: Fuc(a1-2)[GalNAc(a1-3)]Gal(b1-4)GlcNAc(b1-2)Man(a1-3)[Fuc(a1-2)[GalNAc(a1-3)]Gal(b1-4)GlcNAc(b1-2)Man(a1-6)]Man(b1-4)GlcNAc(b1-4)GlcNAc
How it was run: as §1

[14] = biological target: Fuc(a1-2)[GalNAc(a1-3)]Gal(b1-4)GlcNAc(b1-2)Man(a1-3)[Fuc(a1-2)[GalNAc(a1-3)]Gal(b1-4)GlcNAc(b1-2)Man(a1-6)]Man(b1-4)GlcNAc(b1-4)[Fuc(a1-6)]GlcNAc
How it was run: as §1

[15] = biological target: Fuc(a1-2)[GalNAc(a1-3)]Gal(b1-4)GlcNAc(b1-3)Gal(b1-4)GlcNAc
How it was run: as §1

[16] = biological target: Fuc(a1-2)[GalNAc(a1-3)]Gal(b1-4)GlcNAc(b1-3)Gal(b1-4)GlcNAc(b1-3)Gal(b1-4)GlcNAc
How it was run: as §1

[17] = biological target: Fuc(a1-2)[GalNAc(a1-3)]Gal(b1-4)GlcNAc(b1-3)GalNAc
How it was run: as §1

[18] = biological target: Fuc(a1-2)[GalNAc(a1-3)]Gal(b1-4)GlcNAc(b1-3)[Fuc(a1-2)[GalNAc(a1-3)]Gal(b1-4)GlcNAc(b1-6)]GalNAc
How it was run: as §1

[19] = biological target: Fuc(a1-2)[GalNAc(a1-3)]Gal(b1-4)GlcNAc(b1-6)GalNAc
How it was run: as §1

[20] = biological target: Fuc(a1-2)[GalNAc(a1-3)]Gal(b1-4)[Fuc(a1-3)]GlcNAc
How it was run: as §1

[21] = biological target: Fuc(a1-2)[GalNAc(a1-3)]Gal(b1-4)[Fuc(a1-3)]GlcNAc(b1-3)GalNAc
How it was run: as §1

[22] = biological target: Fuc(a1-2)[GalNAc(a1-4)]Gal(b1-4)GlcNAc
How it was run: as §1

[23] = biological target: Fuc(a1-2)[GalNAc(b1-3)]Gal
How it was run: as §1

Fuc(a1-3)GlcNAc = biological target: Fuc(a1-3)GlcNAc
How it was run: as §1

[24] = biological target: Fuc(a1-3)[Gal(b1-4)]Glc6S
How it was run: as §1

[25] = biological target: Fuc(a1-3)[Gal(b1-4)]GlcNAc
How it was run: as §1

[26] = biological target: Fuc(a1-3)[Gal(b1-4)]GlcNAc(b1-2)Man
How it was run: as §1

[27] = biological target: Fuc(a1-3)[Gal(b1-4)]GlcNAc(b1-2)Man(a1-3)[Fuc(a1-3)[Gal(b1-4)]GlcNAc(b1-2)Man(a1-6)]Man(b1-4)GlcNAc(b1-4)GlcNAc
How it was run: as §1

[28] = biological target: Fuc(a1-3)[Gal(b1-4)]GlcNAc(b1-2)Man(a1-3)[Fuc(a1-3)[Gal(b1-4)]GlcNAc(b1-2)Man(a1-6)]Man(b1-4)GlcNAc(b1-4)[Fuc(a1-6)]GlcNAc
How it was run: as §1

[29] = biological target: Fuc(a1-3)[Gal(b1-4)]GlcNAc(b1-3)Gal(b1-3)[Fuc(a1-4)]GlcNAc
How it was run: as §1

[30] = biological target: Fuc(a1-3)[Gal(b1-4)]GlcNAc(b1-3)Gal(b1-4)[Fuc(a1-3)]GlcNAc
How it was run: as §1

[31] = biological target: Fuc(a1-3)[Gal(b1-4)]GlcNAc(b1-3)Gal(b1-4)[Fuc(a1-3)]GlcNAc(b1-3)Gal(b1-4)[Fuc(a1-3)]GlcNAc
How it was run: as §1

[32] = biological target: Fuc(a1-3)[Gal(b1-4)]GlcNAc(b1-3)GalNAc
How it was run: as §1

[33] = biological target: Fuc(a1-3)[Gal(b1-4)]GlcNAc(b1-6)GalNAc
How it was run: as §1

[34] = biological target: Fuc(a1-3)[Gal(b1-4)]GlcNAc(b1-6)[Gal(b1-3)GlcNAc(b1-3)]Gal(b1-4)Glc
How it was run: as §1

[35] = biological target: Fuc(a1-3)[Gal(b1-4)]GlcNAc6S
How it was run: as §1

[36] = biological target: Fuc(a1-3)[Gal3S(b1-4)]Glc
How it was run: as §1

[37] = biological target: Fuc(a1-3)[Gal3S(b1-4)]GlcNAc
How it was run: as §1

B1: B1257 (Bifidobacterium sp) (protein)
chain: MKKSIRLVAAIAALAMTAGISACGSSTNGNQAKSDVTAQDVETALTDTSKNVELTVWAYSAKQMEPTVKAFEKKYPHIKINFVNTGAAGDHFTKFQNVVQAQKDIPDVVQMGANKFQQFAVSGALLNFANDSIEKAWSKLYTKTAWAQVHYAGGLYGAPQDATPLANYVRKDILDEHNLQVPESWEDIYNEGIKLHKEDSNKYMGILGSDISFFTNLYRSVGARLWKVNSVDDVELTMNSGKAKEFTEFLQKCLKDGVLEGGTVFTDEFNRSINDGRYATFINENWMGNTYKEQNPSLKGKMVVAAPPSWKGQPYQSSSVGSMMSVSAACPKEKQAAALAFINWLDSDKDAIQSWQDTNNGNFFMAASVYQDDENQRNKKETDGYYANDDVNAVYFDSMDKVNTDWEYLPFMSQVEVVFNDVIVPQMNENGDLVGAMAKAQQELKTYAKDNGFKVTTDAD
For B1, the “glycan array binding signal (z-score)” value [1] was -0.086, the “glycan array binding signal (z-score)” value [2] was -0.138 and the “glycan array binding signal (z-score)” value [3] was -0.153. For the same binder, the “glycan array binding signal (z-score)” value [4] was -0.087, the “glycan array binding signal (z-score)” value [5] was -0.13 and the “glycan array binding signal (z-score)” value [6] was -0.078. The “glycan array binding signal (z-score)” value [7] was -0.046, the “glycan array binding signal (z-score)” value [8] was 0.025 and the “glycan array binding signal (z-score)” value [9] was -0.144. The “glycan array binding signal (z-score)” value [10] was -0.044, the “glycan array binding signal (z-score)” value [11] was -0.149 and the “glycan array binding signal (z-score)” value [12] was -0.093. For the same binder, the “glycan array binding signal (z-score)” value [13] was 0.131, the “glycan array binding signal (z-score)” value [14] was 0.02 and the “glycan array binding signal (z-score)” value [15] was -0.105. For the same binder, the “glycan array binding signal (z-score)” value [16] was -0.032, the “glycan array binding signal (z-score)” value [17] was -0.017 and the “glycan array binding signal (z-score)” value [18] was -0.037. For the same binder, the “glycan array binding signal (z-score)” value [19] was -0.097, the “glycan array binding signal (z-score)” value [20] was -0.026 and the “glycan array binding signal (z-score)” value [21] was 0.001. For the same binder, the “glycan array binding signal (z-score)” value [22] was -0.147, the “glycan array binding signal (z-score)” value [23] was -0.058 and the “glycan array binding signal (z-score)” value (Fuc(a1-3)GlcNAc) was -0.11. The “glycan array binding signal (z-score)” value [24] was -0.174, the “glycan array binding signal (z-score)” value [25] was -0.078 and the “glycan array binding signal (z-score)” value [26] was 0.049. The “glycan array binding signal (z-score)” value [27] was 0.139, the “glycan array binding signal (z-score)” value [28] was 0.166 and the “glycan array binding signal (z-score)” value [29] was -0.105. For the same binder, the “glycan array binding signal (z-score)” value [30] was 0.159, the “glycan array binding signal (z-score)” value [31] was -0.151 and the “glycan array binding signal (z-score)” value [32] was 0.013. The “glycan array binding signal (z-score)” value [33] was 0.053, the “glycan array binding signal (z-score)” value [34] was -0.064 and the “glycan array binding signal (z-score)” value [35] was -0.027. For the same binder, the “glycan array binding signal (z-score)” value [36] was -0.008 and the “glycan array binding signal (z-score)” value [37] was -0.089.
